PubChem BioAssay AID1346428 (National Center for Advancing Translational Sciences (NCATS), 2018)
Values joined by “and” are separate entries in the source; they are usually repeats but may differ in a detail not shown here. Equal entries are not always repeated. Among all 48,000 compounds or so, about 1,200 (2.5%) were called active. Inconclusive results (about 2%) are left out.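 The calls were made as follows: active = activation of at least 60% and not above a set upper limit (about 1 call in 100 departs from these limits); inconclusive = activation of 40% to 60%, or above that upper limit; inactive = activation under 40%.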 The list shows a part of the results.

Target: Probable G-protein coupled receptor 32 (Homo sapiens) (UniProt O75388)
Chain of UniProt O75388 (O75388 whole entry, looked up): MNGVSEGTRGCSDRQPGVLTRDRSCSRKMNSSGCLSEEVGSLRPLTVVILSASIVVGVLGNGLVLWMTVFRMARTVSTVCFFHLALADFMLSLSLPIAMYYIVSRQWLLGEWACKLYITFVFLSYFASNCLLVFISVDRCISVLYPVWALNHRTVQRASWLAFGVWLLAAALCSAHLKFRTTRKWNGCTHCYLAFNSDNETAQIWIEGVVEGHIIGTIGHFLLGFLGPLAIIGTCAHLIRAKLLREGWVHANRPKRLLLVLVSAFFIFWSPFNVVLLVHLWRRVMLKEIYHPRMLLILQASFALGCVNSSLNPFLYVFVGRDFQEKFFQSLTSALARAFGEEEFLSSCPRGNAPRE
Test: qHTS for Agonists of Human Resolvin D1 Receptor DRV1; also: 0% is about no effect
Conditions: CHO-K1 GPR32 beta-arrestin PathHunter luminescence, 90 min; at 76.9 µM; active compounds read high; zero percent set by DMSO-only wells
Summary of the method: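 Using DMSO wells as EC0, agonist-induced signal was taken as chemiluminescence from beta-Gal reconstituted upon beta-arrestin recruitment to GPR32 in CHO-K1 cells after 90 min compound treatment.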

Structure (SMILES) | activation
COc1cccc(-c2nn(C)c3sc(C(=O)NCc4ccc(C)cc4)cc23)c1 | inactive: -0.148%
CCC1(C)CC(=O)NC1=O (centres undefined) | inactive: -8.71% and inactive: 3.17%
CCOC(=O)c1cc(S(=O)(=O)NCc2ccc(F)cc2)[nH]n1 | inactive: -15.5%
Cc1ccc(-c2nc(C)c(CCNC(=O)C(=O)Nc3ccc(C)c(Cl)c3)s2)cc1 | inactive: 5.03%
CC(=O)Nc1ccccc1OCc1cc(=O)n2c(C)csc2n1 | inactive: 24.5%
COc1ccc2nc(SCc3ncc(C)c(OC)c3C)[nH]c2c1 | inactive: 39.9%
Cc1ccc(NC(=O)CSc2ncc3c(n2)-c2ccccc2N(C)S3(=O)=O)c(Cl)c1 | inactive: -15.2%
COc1ccc(CN(C)c2ccc(-c3nc(C)no3)cc2[N+](=O)[O-])cc1 | inactive: -2.24%
Cc1cc(=O)n2nc(N3CCC(C(=O)NCc4ccccc4F)CC3)sc2n1 | inactive: -10.7%
CN1CCN(CCNC(=O)c2cnn(-c3cccc(Cl)c3)c2C2CCN(C(=O)OC(C)(C)C)CC2)CC1 | inactive: -4.41%
CCN(CCCNC(=O)CSc1cc(=O)n(C)c2cc(Cl)ccc12)c1ccccc1 | inactive: -1.6%
CCc1ccc(CNC(=O)Cn2nc(C)c3c(C)n(-c4ccc(C)cc4)nc3c2=O)cc1 | inactive: -10.3%
CCC(CC)C(=O)Nc1cccc(-c2nc3ncccn3c2C)c1 | inactive: 25.2%
O=C(Nc1ccc(F)cc1F)c1cc2ccc3cccnc3c2[nH]1 | inactive: -4.6%
Cc1cccc(C)c1NC(=O)N1CCC(C(N)=O)(N2CCCCC2)CC1 | inactive: -16.2%
Cc1ccccc1Nc1cc(C(=O)NC2CCC(C)CC2)c2ccccc2n1 (centres undefined) | inactive: 22.3%
CCOC(=O)c1ccc(NC(=O)c2c(NCc3cccc(OC)c3)sc3c2CCC3)cc1 | inactive: -21.7%
CC(C)c1ccc(C(=O)Nc2ccc(-c3nc4ccccc4s3)c(Cl)c2)cc1 | inactive: 23.9%
COc1cccc(-n2c(-c3ccco3)nc3c(cnn3-c3ccccc3C)c2=O)c1 | inactive: -4.42%
COc1cccc(C(=O)NCC(c2ccc(N(C)C)cc2)N2CCc3ccccc32)c1OC (centres undefined) | inactive: -27.5%
COc1ccc2oc(-c3ccc(C)c(NC(=O)c4sc5ccccc5c4Cl)c3)nc2c1 | inactive: -5.75%

Structure (SMILES) | activation
COc1ccc(-c2nc(Cn3c(SCc4cccc(F)c4)nc4cccnc43)c(C)o2)cc1 | inactive: -17.4%
Cn1cc(S(=O)(=O)N2CCCCCC2)cc1C(=O)Nc1ccccc1F | inactive: 9.18%
COc1ccc(N2CCN(c3oc(-c4ccccc4C)nc3S(=O)(=O)c3ccccc3)CC2)cc1 | inactive: -11.6%
Cc1cccc(OCC(=O)Nc2c(C(=O)N3CCN(c4ccccc4)CC3)oc3ccccc23)c1 | inactive: -23.7%
CCCCN(CCCC)S(=O)(=O)c1ccc(C(=O)Nc2sc3c(c2C(N)=O)CCN(CC)C3)cc1 | inactive: 5.37%
COc1cc(NC(=O)Cn2nc(Cc3cccnc3)c3ccccc3c2=O)cc(OC)c1OC | inactive: -20.5%
CCc1nc2ccccc2n1CCCCOc1ccc(Cl)cc1 | inactive: -39.6%
Cc1cccc(CSc2nc3ccncc3n2Cc2ccc(C(=O)O)cc2)c1 | inactive: -7.62%
O=C(Nc1ccc(-c2cn3cccnc3n2)cc1)c1ccccc1F | inactive: -0.543%
Cc1ccc(OCc2ccc(-c3nc(C#N)c(N4CCN(c5cccc(Cl)c5)CC4)o3)o2)cc1 | inactive: 1.5%
CCOc1ccccc1CNC(=O)CCCn1nc(C)c2sc3ccccc3c2c1=O | inactive: -18.3%
COc1cc(NC(=O)Cn2nc(C(F)(F)F)c3c2CCCC3)cc(OC)c1OC | inactive: 18.8%
COc1ccccc1NC(=O)Cn1c(=O)n(CCc2ccccc2)c(=O)c2sc3ccccc3c21 | inactive: 8.81%
Cc1nc2c([nH]1)c(=O)n(C)c(=O)n2Cc1ccco1 | inactive: -5.72% and inactive: 0.204%
CC1=C(C(=O)Nc2cccc(Cl)c2)C2(CCCCCC2)OC1=O | inactive: -24.1%
CCOC(=O)c1cccc(NC(=O)c2cc(S(=O)(=O)N3CCCC3)cn2C)c1 | inactive: -12.7%
Cc1ccc(CSc2oc(-c3ccco3)nc2S(=O)(=O)c2ccc(Cl)cc2)cc1 | inactive: -15.6%
COc1ccc(-c2onc(C)c2C)cc1S(=O)(=O)Nc1ccc(OC(F)(F)F)cc1 | inactive: 11.5%
CCCOC(=O)c1ccc(NC(=O)Cn2nnc3sc4c(c3c2=O)CCC(C(C)(C)C)C4)cc1 (centres undefined) | inactive: -27.6%
Cc1ccc(CNC(=O)CSc2ccc(-c3sc(-c4ccccc4)nc3C)nn2)cc1 | inactive: -5.03%
COC(=O)c1cc2sc(C)cc2n1Cc1ccccc1 | inactive: -29.9%

Structure (SMILES) | activation
CCOC(=O)CNC(=O)c1cc2c(=O)n(CC)c3ccccc3c2s1 | inactive: -3.47%
COc1cccc(CNS(=O)(=O)c2c(C)nc3scc(C)n3c2=O)c1 | inactive: -3.17%
CCOc1ccc(CCNC(=O)CN2C(=O)c3cccnc3Oc3ccc(C)cc32)cc1OCC | inactive: -23.8%
COc1ccc(NC(=O)c2ccco2)cc1NC(=O)C(C)Oc1ccc(Cl)cc1Cl (centres undefined) | inactive: 6.55%
O=S(=O)(c1ccc(Br)cc1)c1nc(-c2ccco2)oc1SCc1ccccc1F | inactive: -30.9%
CC(=O)c1cc(-c2ccc(F)cc2)n(CC(=O)NC2CCCCCC2)c1C | inactive: -13.3%
CCCOc1ccc(/C=C/C(=O)Nc2sc3c(c2C(=O)OCC)CCC(C)C3)cc1OC (centres undefined) | inactive: 0.689%
CCCOc1ccc(-c2cccc(NS(=O)(=O)c3cccs3)c2)nn1 | inactive: 0.148%
O=C(Nc1cccc(C(F)(F)F)c1)c1cc2nc(-c3ccccc3)cc(C(F)(F)F)n2n1 | inactive: 7.54%
CCOc1ccccc1CNC(=O)CCCn1c(=O)c2cccn2c2cccnc21 | inactive: -12.8%
C[N+]1(C)C2CC(OC(=O)[C@H](CO)c3ccccc3)CC1C1OC12 (some centres undefined) | inactive: -10.8% and inactive: 0.53%
CN(C)CCOC(=O)C(c1ccccc1)C1(O)CCCC1 (centres undefined) | inactive: 24.2%
COc1ccc(-c2cccc(NS(=O)(=O)c3cccs3)c2)nn1 | inactive: -1.68%
Clc1ccc(N2CCN(Cc3nnc(-c4ccc5c(c4)OCO5)o3)CC2)cc1 | inactive: 3.82%
COc1ccc(NC(=O)CC2Nc3cccc4cccc(c34)NC2=O)cc1 (centres undefined) | inactive: 28.7%
CCCCN(CC)C(=O)c1c[nH]c2ccc(S(=O)(=O)Nc3cccc(OC)c3)cc2c1=O | inactive: -10.8%
COc1ccc(NC(=O)C2=C(C)Nc3c(C(=O)Nc4ccc(C)cc4)cnn3C2c2cccc(Cl)c2)cc1 (centres undefined) | inactive: -5.61%
O=C(CCCn1c(=O)c2cccn2c2ccccc21)Nc1cccc(Cl)c1 | inactive: -19.2%
Clc1ccccc1CSc1nncn2c1cc1occc12 | inactive: -23.3%
CC(=O)N1c2ccccc2CC1C(=O)N1CCN(c2cccc(C)c2C)CC1 (centres undefined) | active: 116%
Cc1oc2ccc(O)c(CN3CCOCC3)c2c1C(=O)Nc1ccc(C(C)C)cc1 | inactive: -9.24%

Structure (SMILES) | activation
CCc1cc(Cl)c(OC)c(C(=O)NC[C@@H]2CCCN2CC)c1O | inactive: 8.56%
Cc1ccc2onc(CC(=O)N3CCN(c4ccccc4F)CC3)c2c1 | inactive: -28.2%
COc1ccc(-c2cc(C)no2)cc1S(=O)(=O)N1CCN(c2ccc(C(C)=O)cc2)CC1 | inactive: -6.99%
Cc1ccc2oc(-c3cccc(NC(=O)c4cccc5c(Br)cccc45)c3)nc2c1 | inactive: 10.6%
COc1cccc(NC(=O)CSc2nc3c([nH]c4ccccc43)c(=O)n2-c2cccc(Cl)c2)c1 | inactive: -8.21%
Cc1ccc(Cn2ccn(Cc3cccc(C(F)(F)F)c3)c(=O)c2=O)cc1 | inactive: -11.1%
C=CCOc1ccc(C2c3c(oc4ccc(C)cc4c3=O)C(=O)N2CCCN2CCOCC2)cc1 (centres undefined) | inactive: -3.17%
Cc1ccc(-c2ccc(=O)n(CC(=O)Nc3ccc(C(C)C)cc3)n2)cc1 | inactive: 2.49%
CCOC(=O)c1ccc(NC(=O)CSc2nc(C)c(Cc3ccccc3)c(=O)[nH]2)cc1 | inactive: -4.65%
CCc1cccc(CC)c1N(COC)C(=O)Cn1c(C)nc2ccccc21 | inactive: -25.3%
CCN(CC)CCOC(=O)c1ccc(NC(=O)CSc2cc(=O)n(CC)c3ccccc23)cc1 | inactive: 14.5%
Cc1ccc(-n2nc(C)c3c(C)cc(=O)n(CC(=O)NC(C)C)c32)cc1 | inactive: -4.73%
COCCNC(=O)CCn1c(=O)c2cc(OC)c(OC)cc2n(CC(=O)Nc2ccccc2OC)c1=O | inactive: 6.14%
COc1ccccc1NC(=O)c1c(C)cc(C)nc1SCC(=O)Nc1cccc(C)c1 | inactive: -18.9%
CCc1nn(CC(=O)Nc2ccc(C)cc2C)c(=O)c2cc3sccc3n12 | inactive: -10.9%
O=C(Nc1ccc(F)c(Cl)c1)C1Cc2ccccc2CN1S(=O)(=O)c1ccc(F)cc1 (centres undefined) | inactive: -14.9%
COc1ccc(Nc2ncnc3onc(-c4ccc(Cl)cc4)c23)cc1Cl | inactive: 15.4%
COc1cc(OC)c(NC(=O)c2cnn(-c3cccc(Cl)c3C)c2C2CCN(C(=O)OC(C)(C)C)CC2)cc1Cl | inactive: 6.54%
COc1ccc(-n2cc(-c3ccccc3)c3c(NCc4cccc(Cl)c4)ncnc32)cc1 | inactive: -29.9%
O=C(NCc1ccccc1)c1ccc(NC(=O)N2CCSc3ncccc32)cc1 | inactive: -8.89%
Cc1ccc(NC(=O)c2cn(-c3ccccc3)nc2-c2ccccc2)cc1 | inactive: -18%
